# Results from the antibiotic and cytotoxicity screens of Wong et al. (2023).
# Some of the results follow.
# How the values were obtained:
# HSkMC = human skeletal muscle cells; assay: cytotoxicity call (relative viability < 0.9); conditions: 10 µM
# HepG2 = assay: cytotoxicity call (relative viability < 0.9); conditions: 10 µM
# S. aureus RN4220 = assay: growth inhibition call (relative growth <= 0.2); conditions: 50 µM
Compound,cytotoxicity call (HSkMC),cytotoxicity call (HepG2),growth inhibition call (S. aureus RN4220)
C[C@@H]1CN([C@@H](C)CO)C(=O)c2cccc(N(C)C)c2O[C@H]1CN(C)S(C)(=O)=O,inactive,inactive,inactive
NC1(C#Cc2cncc(C(=O)N3CCOCC3)c2)CCCCC1,inactive,inactive,inactive
COCC#Cc1ccc2c(c1)O[C@H](CN(C)C(=O)CN(C)C)[C@H](C)CN([C@@H](C)CO)S2(=O)=O,inactive,inactive,inactive
C[C@H]1CCCCO[C@H](CN(C)Cc2ccc(C(F)(F)F)cc2)[C@@H](C)CN([C@@H](C)CO)C(=O)c2cc(NC(=O)CCCN(C)C)ccc2O1,inactive,active,inactive
C[C@H](CO)N1C[C@H](C)[C@H](CN(C)C(=O)Nc2cccc3ccccc23)OCCCC[C@H](C)Oc2ccc(NC(=O)Nc3ccc(F)cc3)cc2C1=O,inactive,inactive,inactive
Nc1ncnc2c1c(I)cn2[C@@H]1O[C@H](CO)[C@@H](O)[C@H]1O,inactive,active,inactive
CCCNC(=O)N(C)c1nncnc1C(=O)NC,inactive,inactive,inactive
Cc1noc(C)c1S(=O)(=O)Nc1ccc2c(c1)C(=O)N([C@@H](C)CO)C[C@@H](C)[C@@H](CN(C)S(C)(=O)=O)OCCCC[C@@H](C)O2,inactive,inactive,inactive
COCC(=O)Nc1ccc2c(c1)C(=O)N(C)C[C@H](OC)[C@H](C)CN(C(=O)c1ccccc1F)[C@H](C)CO2,inactive,inactive,inactive
C[C@@H]1CCCCO[C@@H](CN(C)Cc2ccccc2)[C@H](C)CN([C@@H](C)CO)C(=O)c2cc(NC(=O)Nc3ccc4c(c3)OCO4)ccc2O1,inactive,inactive,inactive
CC(C)NC(=O)Nc1ccc2c(c1)C(=O)N([C@H](C)CO)C[C@@H](C)[C@@H](CN(C)Cc1ccc(C(F)(F)F)cc1)OCCCC[C@H](C)O2,inactive,inactive,inactive
C[C@@H]1CN([C@H](C)CO)C(=O)c2cc(NC(=O)c3ccncc3)ccc2O[C@H]1CN(C)C(=O)Nc1ccc2c(c1)OCO2,inactive,inactive,inactive
COc1ccccc1-c1ccc2c(c1)O[C@H](CN(C)C(=O)c1cccnc1)[C@H](C)CN([C@H](C)CO)S2(=O)=O,inactive,inactive,inactive
Cc1noc(C)c1NC(=O)Nc1ccc2c(c1)C(=O)N([C@@H](C)CO)C[C@@H](C)[C@H](CN(C)Cc1ccc(C(F)(F)F)cc1)O2,inactive,inactive,inactive
C[C@H](CO)N1C[C@H](C)[C@H](CN(C)C(=O)Nc2cccc3ccccc23)Oc2ccc(NC(=O)Nc3ccccc3)cc2C1=O,inactive,inactive,inactive
Cc1ccc(S(=O)(=O)N(C)C[C@H]2Oc3c(NS(=O)(=O)c4ccc(F)cc4)cccc3C(=O)N([C@H](C)CO)C[C@H]2C)cc1,inactive,inactive,inactive
C[C@@H]1CN([C@@H](C)CO)C(=O)c2cc(-c3cccc(C#N)c3)cnc2O[C@@H]1CN(C)C(=O)C1CCOCC1,inactive,inactive,inactive
Cc1ccc2nncn2n1,inactive,inactive,inactive
COc1ccc(NC(=O)N(C)C[C@H]2Oc3ccc(NC(=O)CCCN(C)C)cc3C(=O)N([C@H](C)CO)C[C@H]2C)cc1,inactive,inactive,inactive
CN1CC(=O)NC1=N,inactive,inactive,inactive
C[C@@H]1CCCCO[C@@H](CN(C)S(=O)(=O)c2ccc(Cl)cc2)[C@@H](C)CN([C@@H](C)CO)C(=O)c2cc(NC(=O)Cc3ccccc3)ccc2O1,inactive,inactive,inactive
CN(C)CC(=O)N[C@@H]1CC[C@@H](CC(=O)O)O[C@@H]1CO,inactive,inactive,inactive
C[C@H](CO)N1C[C@H](C)[C@H](CN(C)S(=O)(=O)c2ccc(F)cc2)OCCCC[C@H](C)Oc2ccc(NC(=O)c3ccccc3)cc2C1=O,inactive,inactive,inactive
C[C@@]1(F)[C@H](O)[C@@H](CO)O[C@H]1n1ccc(N)nc1=O,inactive,inactive,inactive
C[C@@H]1CCCCO[C@H](CN(C)Cc2ccc(Cl)c(Cl)c2)[C@@H](C)CN([C@@H](C)CO)C(=O)c2cc(NS(=O)(=O)c3cn(C)cn3)ccc2O1,inactive,inactive,inactive
COc1ccc(NC(=O)N(C)C[C@H]2Oc3c(NC(=O)CCCCCC(=O)Nc4ccccc4N)cccc3C(=O)N([C@@H](C)CO)C[C@@H]2C)cc1,inactive,inactive,inactive
